Test results taken from paper PMC6946549 (Biochemistry, 2019).

Experiments:
[1] = molecular target: ChsH2, full length (from the ChsH1-ChsH2 complex made in E. coli) (Mycobacterium tuberculosis H37Rv); assay: SAXS
[2] = molecular target: ChsH2^N (ChsH2 amino acid […], C-terminal DUF35 domain absent) (Mycobacterium tuberculosis H37Rv); assay: SAXS

B1: ChsH1 (from the ChsH1-ChsH2 and ChsH1-ChsH2^N complexes made in E. coli) (enzyme)
chain: not shown
- binding result [1]: binds
- binding result [2]: binds
